According to the supplement of paper PMC12217912:
Some of the results follow. Sequences were assembled here from the parent chain. Inactive controls read about 0.05.

B1: TEV protease; numbered along this chain (parent)
chain: MGESLFKGPRDYNPISSSICHLTNESDGHTTSLYGIGFGPFIITNKHLFRRNNGTLVVQSLHGVFKVKDTTTLQQHLVDGRDMIIIRMPKDFPPFPQKLKFREPQREERICLVTTNFQTKSMSSMVSDTSCTFPSGDGIFWKHWIQTKDGQCGSPLVSTRDGFIVGIHSASNFTNTNNYFTSVPKNFMELLTNQEAQQWVSGWRLNADSVLWGGHKVFMVKPEEPFQPVKEATQL

Variants of: B1
Assay: raw area under fraction-flipped curve 0-4 h after induction (AUC4h, not background-subtracted), DNA-recorder readout of cleavage of the substrate (dimensionless); higher = more cleavage of the substrate by the protease variant
Conditions: temperature: 34 °C; time window: 0-4 h after rhamnose induction
Method: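 In vivo DNA recorder in E. coli TOP10(DE3) ΔrhaA at 34 °C. Each TEVp single-site mutant (parent TEVp 0) is paired with a single-site variant of the 7-mer TEVs (canonical ENLYFQ|S). The substrate sits between flexible linkers in a Bxb1-sfGFP-TEVs-SsrA fusion, so cleavage stabilises Bxb1 and speeds flipping of a recombination array, read by NGS. The value is the raw area under the fraction-flipped curve over 0-4 h after rhamnose induction (AUC4h), with ≥20 reads per time point. It is not background-subtracted; inactive controls average about 0.047.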
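Note: Bxb1 expression induced with 0.2% (w/v) L-rhamnose at OD600 near 0.5, cultures sampled hourly, flipped fraction per protease–substrate barcode pair counted by paired-end Illumina sequencing.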

Variant | area with substrate ENLYFAS | area with substrate ENLYFCS | area with substrate ENLYFDS | area with substrate ENLYFES | area with substrate ENLYFFS | area with substrate ENLYFHS | area with substrate ENLYFIS | area with substrate ENLYFKS | area with substrate ENLYFLS | area with substrate ENLYFMS | area with substrate ENLYFNS | area with substrate ENLYFPS | area with substrate ENLYFRS | area with substrate ENLYFTS | area with substrate ENLYFVS | area with substrate ENLYFWS | area with substrate ENLYFGS | area with substrate ENLYFSS | area with substrate ENLYFYS
N53G | 0.0563 | 0.0666 | 0.056 | 0.0668 | 0.0535 | 0.0652 | 0.0586 | 0.045 | 0.0582 | 0.0577 | 0.0664 | 0.0617 | 0.0488 | 0.0608 | 0.0627 | 0.0601 | – | – | –
N53A | 0.0586 | 0.0657 | – | 0.0272 | 0.0741 | 0.06 | 0.0569 | 0.0742 | 0.0594 | 0.0508 | 0.0626 | 0.0571 | 0.0674 | 0.0672 | 0.0679 | – | 0.0674 | 0.0608 | 0.0578
V64N | 0.0612 | 0.0592 | – | 0.107 | 0.0527 | – | 0.0556 | 0.0726 | – | 0.0468 | 0.065 | 0.0459 | 0.0608 | 0.064 | 0.0601 | – | – | 0.0595 | –
D79L | 0.0236 | 0.0543 | – | 0.0587 | 0.0741 | – | 0.03 | – | – | 0.0738 | 0.0701 | 0.0603 | 0.0706 | – | 0.0415 | – | 0.0529 | 0.0348 | 0.0589
D79G | 0.0613 | 0.0568 | – | 0.0696 | 0.0662 | 0.064 | 0.055 | 0.0732 | – | 0.0588 | 0.054 | 0.0688 | 0.0466 | 0.0273 | 0.0348 | 0.0618 | 0.0602 | 0.0673 | –
D79V | 0.0649 | – | – | – | 0.0651 | 0.0189 | 0.033 | – | – | – | 0.0713 | 0.0672 | – | 0.0473 | 0.0774 | – | 0.0358 | 0.0501 | 0.0667
R81G | 0.0374 | 0.0331 | – | – | 0.0701 | 0.0544 | 0.0628 | 0.062 | – | 0.0711 | – | 0.0595 | 0.0595 | – | – | 0.065 | 0.0607 | 0.0612 | –
P94E | 0.0493 | – | – | 0.0689 | 0.0714 | 0.0605 | 0.0507 | 0.105 | – | 0.0693 | 0.0885 | 0.0631 | 0.0542 | 0.0616 | 0.0571 | – | – | 0.0528 | –
P94D | 0.0525 | – | 0.0532 | – | 0.0637 | – | 0.0556 | 0.0664 | 0.052 | 0.0648 | – | – | 0.074 | 0.0501 | – | – | – | – | 0.0619
P94Q | 0.0686 | 0.0571 | 0.0707 | 0.0594 | 0.0797 | – | 0.05 | 0.0546 | 0.0547 | 0.0668 | 0.0897 | 0.0677 | 0.0649 | 0.0622 | 0.0721 | 0.0547 | 0.0638 | 0.068 | 0.0633
H76E | 0.0451 | 0.0629 | 0.0448 | 0.0643 | 0.0609 | 0.0776 | 0.0551 | 0.063 | 0.068 | 0.0541 | 0.054 | 0.0456 | 0.033 | 0.0678 | 0.0627 | 0.0592 | – | 0.0782 | 0.0806
N52Y | 0.066 | 0.0532 | 0.0619 | 0.0628 | 0.0588 | – | 0.0675 | 0.0638 | – | 0.0596 | 0.0561 | 0.0614 | 0.0522 | 0.0481 | 0.0768 | – | 0.0556 | 0.0559 | 0.0616
